# Among all 150,000 compounds or so, about 540 (0.36%) showed an effect of 50% or more. This is one part of the list.
# System: Plasmodium falciparum
# Assay: Primary screen in NF54 nanoGlo assay, in single point, at 2uM, 72h; a lower Z score goes with more inhibition
# Type: functional, Erythrocyte
# Details: timepoint 72 hour
Structure (SMILES),% Inhibition,Z score
Cc1nn(Cc2ccccc2)c2nc(-c3ccsc3)[nH]c12,-8%,1.17
COC[C@H](C)NC(=O)Nc1ccc(Cl)c(F)c1,-3%,0.25
Cc1ccc(CNC(=O)Cn2nc3c(N4CCOCC4)nc4ccccc4n3c2=O)cc1,1%,-0.18
CN(C)C(=O)N1CC[C@@]2(O)CCN(Cc3cc4cc(F)ccc4n3C)C[C@H]2C1,-12%,1.73
Cn1c(=O)[nH]c(=O)c2c1nc(N1CCCCCC1)n2C[C@H](O)COc1ccccc1,-21%,2.72
CNc1cc(C)nc(-c2cc(NCc3ccncc3)nc3[nH]ccc23)n1,-5%,0.72
CC(C)Cn1nc2n(c1=O)CCN(C(=O)c1cncn1C)[C@@H]2c1ccccc1,2%,-0.26
Cc1ccc2c(=O)n(C3(C)CCC3)cnc2c1,-7%,1.35
O=C(CCn1ccnc1-c1cc2n(n1)CCCNC2)NC1CCCCC1,5%,-0.79
O=C(O)[C@@H]1Cc2c([nH]c3ccccc23)C2(CCCCC2)N1,-13%,1.17
CCOc1ccccc1-c1ncnc2c(C)csc12,-9%,0.8
Cc1ccc(CNCc2scnc2C)c(OC[C@H]2CCOC2)c1,-6%,0.62
CC(C)(C)CC(=O)N1C[C@@H]2C[C@H]1C(=O)Nc1ccccc1O2,-7%,1.21
CCn1nc(C)c(C(=O)N2CC=C(c3ccc(C#N)cc3)CC2)c1C,-5%,0.42
O=C(c1nc(N2CCOCC2)ncc1Cl)N1CCc2sccc2C1,6%,-0.76
CCN(C1CC1)S(=O)(=O)c1ccc2ccccc2c1,-4%,0.42
CCN1C[C@@H](CNC(=O)c2cc(NS(=O)(=O)CC)cc3nc(-c4ccccc4)n(C)c23)CC1=O,5%,-0.64
COc1ccc(-c2n[nH]c(C(=O)N(C)C)n2)c(C)c1,1%,-0.18
CCS(=O)(=O)N(C)Cc1cccnc1OC,-9%,1.22
CC(F)(F)CC(=O)N[C@H]1CC[C@@H](C#N)C1,-4%,0.43
CN(C)c1ncc(CNC2(CNC(=O)OC(C)(C)C)CCCC2)cn1,1%,-0.12
Cc1ccc2sc(CNC(=O)OC3CCC3)nc2c1,0%,0.07

Structure (SMILES),% Inhibition,Z score
CCc1c(C(=O)N(Cc2ccccc2)Cc2nccs2)c(=O)cc(C)n1C,-9%,1.62
O=C1C2CCCC1CC(C(=O)N1CCN(c3ccccc3)CC1)C2 (configuration not stated),-2%,0.19
COc1cc(-c2nc(C(=O)Nc3ccc(C)cc3)cs2)ccc1OCc1c(F)cccc1F,7%,-0.74
CCn1nc([C@@H]2CCCN2Cc2ccsc2)c2c1CCOC2,-7%,0.67
CC(=O)N1CCc2cc(S(=O)(=O)N(C)Cc3cc(C)on3)ccc21,0%,0.05
O=C(NCc1noc(-c2ccccc2)n1)c1cc(CO)ccn1,-3%,0.49
Cc1cn2cc(C(=O)NCCc3csc(N)n3)ccc2n1,-9%,1.43
CCC[C@H]1COCCN1C(=O)c1cc(CN(CC)CC)c(CC)o1,6%,-1.08
CCOCc1c(-c2ccc(Cl)cc2)c2cc3c(cc2[nH]c1=O)OCCO3,33%,-3.73
Cc1noc(C)c1CCNC1CCCC(C(F)(F)F)C1 (configuration not stated),-3%,0.48
Cc1cnccc1N1CCC[C@H](CS(C)(=O)=O)C1,-19%,2.81
O=C(Nc1cccnc1)C(=O)N1CCC[C@H](NCc2ccccc2)C1,-16%,1.72
N#Cc1ccc(COc2ccc3c(c2)OCO3)c(F)c1,-19%,2.2
Cc1ccc(C(=O)NCC2=CCN(CCn3cccn3)CC2)cc1,-6%,0.6
CCCN(Cc1ccc(C(=O)N[C@H]2CCCc3ccccc32)c(=O)[nH]1)C1CC1,-14%,2.17
COc1ccc2cc(C(=O)N3CC[C@H](Cc4ccc(CO)cc4)C3)n(C)c2c1,-21%,2.13
O=C(c1ccc(S(=O)(=O)N2CCOCC2)cc1)N(C(=O)N1CCCCC1)c1ccccc1,5%,-0.96
C[C@@H](Cc1ccc(N(C)C)cc1)NC(=O)c1c[nH]nc1-c1cccc(F)c1,-14%,1.95
CC1(C)CS(=O)(=O)N(c2cccc(C(=O)N3CCN(c4ccccn4)CC3)c2)C1=O,-2%,0.26
COc1cc(CNCc2cnc(-c3ccccc3)s2)ccc1C,-19%,2.05
C[C@H]1CCCCN1CCCNC(=O)c1cc(-c2ccccc2F)nc2cc(C(C)(C)C)nn12,-2%,0.23
O=C(c1ccc(Cl)o1)N1CCN(c2nccs2)CC1,-8%,1.08

Structure (SMILES),% Inhibition,Z score
Cc1nc(CN2CCc3c(c(C(=O)N4CCc5ccccc5C4)nn3Cc3ccccn3)C2)no1,-1%,0.26
CNc1ncccc1C(=O)N[C@H]1COC[C@@H]1OC,-7%,1.02
CCN(C)S(=O)(=O)NCc1csc(N)n1,-11%,1.09
COC[C@@H]1[C@H](C(=O)NCCCN2CCCC2=O)CCCN1Cc1ccccc1,2%,-0.26
COc1ccc(CCn2c(C3CCC3)n[nH]c2=O)cc1,-10%,1.23
O=C(c1ccccn1)N1CC[C@H](Cc2noc(C3CC3)n2)C1,10%,-1.84
COC(=O)C1CCN(C(=O)CCc2ccc(-c3ccc(C)cc3C)n2-c2ccc(CC#N)cc2)CC1,-6%,0.89
O=C(c1ccc(-c2c[nH]c3ccccc23)o1)N1CCOCC1,-22%,2.8
Cc1cnc(CN2C[C@]3(CCCN(c4cnccn4)C3)CCC2=O)cn1,-1%,0.12
CC1(C)C(Nc2ncnc3[nH]ncc23)C2CCOC21 (configuration not stated),-12%,1.05
C=Cn1cc(CNc2ccc(-c3cn4c(n3)CCCC4)cc2)cn1,-19%,1.99
Cn1cc(Cl)cc1C(=O)N1CCS(=O)(=O)C[C@H]1C1CCC1,-9%,1.46
CC(CNS(=O)(=O)C1CCOC1C)c1cccs1 (configuration not stated),-10%,1.34
O=C(c1ccco1)N1CCN(C2CCCCCC2)CC1,31%,-3.95
C[C@@H](Cn1cncn1)NC(=O)c1ccc(=O)n(C)c1,0%,0
O=C(NCc1ccccc1)NCC1CCOCC1,-4%,0.48
O=C1CCN(C(=O)c2ccco2)CCOCCN1,-1%,0.13
Cc1nc(C(=O)N2c3ccccc3NC(=O)C[C@@H]2C)cs1,-3%,0.53
CN1CCN(Cc2ccc(-c3ccccc3)cc2)CCC1=O,6%,-1.02
COc1cccc(C(=O)Nc2ccc(OCc3nnc(-c4ccccc4)o3)cc2)c1OC,-11%,1.31
COc1ccc(Cl)cc1C(=O)Nc1cc(C2CC2)nn1-c1nc(C)cc(=O)[nH]1,63%,-6.61
Cc1cc(S(=O)(=O)N2C[C@@H]3C[C@@]2(C(=O)O)[C@@H]3C)sc1C,-6%,1.15

Structure (SMILES),% Inhibition,Z score
CCCN1CCN(CCNc2nnc(-c3nc(C4CC4)no3)c3ccccc23)CC1,4%,-0.47
O=C(c1cc(-c2ccco2)nc2c(Cl)cccc12)N1CCCOCC1,-17%,1.59
O=C(Nc1cccc2ncccc12)C(c1ccccc1)c1ccccc1,12%,-1.64
CN1CCCCC[C@H]1c1ncnn1C1CCCCC1,-16%,1.74
COCCCn1cnc2c(-c3ccccc3)cn(CC(=O)NCc3ccc4c(c3)OCO4)c2c1=O,-2%,0.31
COc1cc(C)ccc1OCCN(C)C,-12%,1.67
CCC(C)C(OC)C(=O)Nc1nn(C)cc1C#N (configuration not stated),-4%,0.73
CC1CCC(NC2CCN(Cc3ccccc3)CC2)CC1 (configuration not stated),2%,-0.3
Cc1cc(CNC2CCC3(CC2)CCN(C(=O)OC(C)(C)C)C3)on1 (configuration not stated),-14%,2.95
Cc1c(NC(=O)c2n[nH]cc2Br)c(=O)n(-c2ccccc2)n1C,30%,-0.74
CO[C@H]1CN(C)C[C@@H]1NS(=O)(=O)CC1CCCC1,-14%,2.69
c1nc2nc3c(c(N4CC[C@H]5CCCC[C@@H]5C4)n2n1)CCCC3,-1%,0.24
C[C@@H](Cn1cncn1)N1CCC(n2cc(-c3ccc(F)cc3)nn2)CC1,1%,-0.24
COCCCN1C(=O)CC(CC(=O)N(Cc2ccccc2)C[C@@H]2CCC(=O)N2)(c2ccccc2)C1=O (some centres not stated),-2%,0.34
Cc1onc(OC(F)F)c1NC(=O)Cc1ccn(C)n1,-5%,0.6
CC(C)(C)OC(=O)N1CC2(CC2)c2ccccc2[C@@H]1C(=O)O,-7%,1.32
CCCCNCCCOc1cccc(Cl)c1Cl,-9%,1.76
COc1ccc(N2CCN(C(=O)Cn3c(=O)c4nncn4c4ncccc43)CC2)cc1,-10%,1.27
C[C@H](Oc1ccccc1Cl)C(=O)N(C)CC1(O)CCCC1,2%,-0.27
COc1ccc(CNc2nc(NCc3ccc(OC)c(OC)c3)n(S(=O)(=O)c3ccc(C)cc3)n2)cc1OC,-13%,1.9

# Reference: ChEMBL document CHEMBL4888484, “Replenishing the malaria drug discovery pipeline: Screening and hit evaluation of the MMV Hit Generation Library 1 (HGL1) against asexual blood stage Plasmodium falciparum ,using a nano luciferase reporter read-out” (2022)
